# Read counts are not given, so values of variants with three or more changes are uncertain.
# B1: CPEB3 Ribozyme (parent)
# chain: UAACAGGGGGCCACAGCAGAAGCGUUCACGUCGCAGCCCCUGUCAGAUUCUGGUGAAUCUGCGAAUUCUGCUGUAUAUCUC
# Variants of: B1
# Test: self-cleavage, relative activity (ratio to wild type); higher = more cleavage; in vitro, sequencing
# Method in brief: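 Relative activity compares each variant's cleaved/total read fraction with that of the unmutated ribozyme. To get these fractions, barcoded CPEB3 ribozyme libraries from rounds of error-prone PCR were transcribed with T7 RNA polymerase for 5 hours at 37°C and then given 15 min of DNase I treatment before EDTA was added. The RNAs were reverse transcribed with template switching and sequenced on Illumina, and DNA sequencing linked barcodes to variants. A minimum of 5 reads applied, and three batches were averaged.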
row,Variant,self-cleavage
1,A3G U48C U60G U76G A77U,0.13
2,A3G U48C U69A U80C,0.2
3,A3G U48C U78A,0.96
4,A3G U49A U51A,0.11
5,A3G U49C U54C A57U U80A,0.45
6,A3G U49C U54G U74A U78C,0.55
7,A3G U49C U80A,0.78
8,A3G U51A U66C A75G,0.3
9,A3G U51C U72A A75G,1.15
10,A3G U54A G63U,1.13
11,A3G U54C U78C,0.56
12,A3G U60A U78A,0.7
13,A3G U60C C62G,0.22
14,A3G U60C U72C,0.43
15,A3G U60C U76A,0.5
16,A3G U74A U80C,1.15
17,A3U A5C A13U A20G C32A U49C U69C,0.18
18,A3U A5G A35U A47G U76A,0.31
19,A3U A5U C38U C68A,0.46
20,A3U A5U G10A A64U,0.12
21,A3U A5U G61U,0.76
22,A3U A13C U26C U72A,0.35
23,A3U A13C U48C A65G,0.29
24,A3U A13G A18G A35G C40A A57G,0.37

row,Variant,self-cleavage
1,A3U A13G A65G U69A,0.3
2,A3U A13G U26C A64U,0.13
3,A3U A13G U26C G30C U60A,0.24
4,A3U A13G U31G U67C U80C,0.24
5,A3U A13G U41A U72C U78C,0.24
6,A3U A13U C14A A45G,1.07
7,A3U A13U C39U U48C U51A U60A U72A,0.11
8,A3U A13U G42A U72C,0.26
9,A3U A13U U25C A64U,0.12
10,A3U A13U U26C U54C G55C U58C U72C,0.19
11,A3U A13U U43C U51C,0.99
12,A3U A15C A20G U25C A64G,0.09
13,A3U A15G A75G,1.21
14,A3U A15G A77U,0.98
15,A3U A15G C23G A28U,0.18
16,A3U A15G C27A C38A G42A A45G,0.11
17,A3U A15G C50G,0.64
18,A3U A15G U26C A35G A47G U49C,0.04
19,A3U A15G U43C U54C,0.31
20,A3U A15U A57G A64G,0.59
21,A3U A18G A28G A57G A65G,0.26
22,A3U A18G A35G A57G A65G A75G,0.8
23,A3U A18G A65U,0.72
24,A3U A18G C23U G46A,0.28

row,Variant,self-cleavage
1,A3U A18G G22U U48C U72C U74C,0.17
2,A3U A18G G24A U26C U54C A56G,0.17
3,A3U A18G G24U U43C U48C U58C U72G,0.3
4,A3U A18U A21U A64U,0.08
5,A3U A18U C34U,0.25
6,A3U A18U U26A A28U A35G U60A,0.27
7,A3U A18U U54A G63A U76C,0.49
8,A3U A20C A21C U31C U49C,0.07
9,A3U A20C U26C,0.56
10,A3U A20G A21U C81U,0.21
11,A3U A20G A28G C38A U41C A56G U67A,0.06
12,A3U A20G A35U U43A U60C,0.1
13,A3U A20G C29U A45U U54C U69G,0.7
14,A3U A20G C59A U72G,0.27
15,A3U A20G U31C A35U A45G G52U A65G,0.2
16,A3U A20G U48C,0.53
17,A3U A20G U67C A77U,1.05
18,A3U A20U A35U C44A A45U U69A,0.08
19,A3U A20U A47G,0.49
20,A3U A20U C68G U74A,0.29
21,A3U A20U U49C U60C G63A,0.08
22,A3U A21C U25C A35U,0.15
23,A3U A21G A35G A64U U66C,0.84
24,A3U A21G U25C U26A A35G U76C,0.6

row,Variant,self-cleavage
1,A3U A21U U72A A75G,0.53
2,A3U A28G A45G,0.53
3,A3U A28G A47G,0.5
4,A3U A28G U54C U67C U72A,0.17
5,A3U A28G U72C U74C,0.96
6,A3U A35C U41C G55C U72G,0.54
7,A3U A35U U43A U80C,0.62
8,A3U A45U U51A,0.38
9,A3U A47G C71U,0.44
10,A3U A57G U80A,1.2
11,A3U C4A A47G U54A,1.18
12,A3U C4A C40U,0.71
13,A3U C4U A15C,1
14,A3U C4U U49C U69A U72A,0.13
15,A3U C11G C27G A47U A57U,0.22
16,A3U C12G C14U U66C,0.29
17,A3U C12U A45U U67C U76A,0.32
18,A3U C12U U25C C32U A45U A47U A65U,0.06
19,A3U C17G U26C,0.31
20,A3U C17G U26C A45G,0.09
21,A3U C23A U31C U43C U49A,0.1
22,A3U C23U A28C,0.4
23,A3U C23U C37A A65G,0.12
24,A3U C27A C38A G42A,0.33

row,Variant,self-cleavage
1,A3U C32A A57G U72A,0.16
2,A3U C32A C38G U66C,0.47
3,A3U C32U A35U U54C U60C U72A U74C,0.08
4,A3U C32U U51C A57G A64G,0.07
5,A3U C34G C39U,0.32
6,A3U C37G U67C,0.13
7,A3U C40U U43A U58C U69C,0.32
8,A3U C68U U69C U72C,0.29
9,A3U G6U A18G U43A,0.1
10,A3U G7A A56G C71A,0.08
11,A3U G7U A35C U51C U58C,0.32
12,A3U G7U G30U C62A U80C,0.34
13,A3U G7U U54C,0.29
14,A3U G8A G10A C11G C34G U80A,0.02
15,A3U G8A G63A,0.53
16,A3U G8A U26C U48A A56U U66C,0.16
17,A3U G8U U31A U67A,0.2
18,A3U G9A A15G U67A,0.09
19,A3U G9A G30A U43A U72A A77G,0.05
20,A3U G10A A47C A75G,0.05
21,A3U G10U U41A A57G,0.06
22,A3U G10U U58C,0.07
23,A3U G16A A20U G42U,0.05
24,A3U G19U U41C G61A G63A U69G C79U,0.22

row,Variant,self-cleavage
1,A3U G22A U41A U48A A65G U76A,0.39
2,A3U G22U A28G A35U U41A A56U U66C,0.3
3,A3U G24A C27U U41C A45G U69A,0.05
4,A3U G24A U41A U67A G73U,0.09
5,A3U G30A A35U U54A,0.22
6,A3U G42A A47G U48A U72C U78C,0.07
7,A3U U25A A35G,0.14
8,A3U U25A A47G A56U A75U,0.16
9,A3U U25A U31A,0.31
10,A3U U25C A57G,0.37
11,A3U U25C C32U U43C U69A,0.03
12,A3U U25C G30A,0.23
13,A3U U25C U26C A45G A77U,0.1
14,A3U U25C U43C U49C U60A A65G U80C,0.22
15,A3U U25C U51C,0.11
16,A3U U26A G53U U58C,0.41
17,A3U U26A U31C U49C,0.19
18,A3U U26A U76C U78C,1.09
19,A3U U26C A64G,0.67
20,A3U U26C C40U,0.43
21,A3U U26C U43C,0.65
22,A3U U31A A56G U69A,0.46
23,A3U U31C C34U U48C U78C,0
24,A3U U31C C40U,1.11

row,Variant,self-cleavage
1,A3U U31C U69A,0.29
2,A3U U41A G46A U51C G63A A65U,0.1
3,A3U U41A U49A A57G U60C U69A,0.13
4,A3U U41A U66G,0.34
5,A3U U41C A64G,0.89
6,A3U U43A A45G A64G,0.4
7,A3U U43A A45G G63U U69C,0.29
8,A3U U43A A57G U72A,0.66
9,A3U U43A G46U A56G,0.25
10,A3U U43A U49C,0.56
11,A3U U43A U51C U69C,0.71
12,A3U U43C U49A A57G U80G,0.26
13,A3U U48C A64G G70A U78C,0.12
14,A3U U48C U67C,0.13
15,A3U U48C U69C U72C,0.28
16,A3U U49A U67C,0.29
17,A3U U51C G52U,1.06
18,A3U U51G A64G A75G,0.8
19,A3U U54C A65G,0.31
20,A3U U54C G63A A65G A77C,0.54
21,A3U U60A U67C,0.31
22,A3U U60A U69C U78C,0.49
23,A3U U60G U72A U78A,0.32

# Source: the RNAGym collection of RNA variant scans (doi:10.1093/nar/gkz1192)
